# Among all 310,000 compounds or so, about 2,200 (0.71%) showed an effect of 50% or more. The effect is printed as a negative number. This is one part of the list.
# Target: human ether-à-go-go-related gene (hERG) potassium channel (human, UniProt Q12809)
# Test: primary screen, population patch clamp on CHO cells stably expressing hERG
# Sequence of human ether-à-go-go-related gene (hERG) potassium channel (Q12809 whole entry, looked up): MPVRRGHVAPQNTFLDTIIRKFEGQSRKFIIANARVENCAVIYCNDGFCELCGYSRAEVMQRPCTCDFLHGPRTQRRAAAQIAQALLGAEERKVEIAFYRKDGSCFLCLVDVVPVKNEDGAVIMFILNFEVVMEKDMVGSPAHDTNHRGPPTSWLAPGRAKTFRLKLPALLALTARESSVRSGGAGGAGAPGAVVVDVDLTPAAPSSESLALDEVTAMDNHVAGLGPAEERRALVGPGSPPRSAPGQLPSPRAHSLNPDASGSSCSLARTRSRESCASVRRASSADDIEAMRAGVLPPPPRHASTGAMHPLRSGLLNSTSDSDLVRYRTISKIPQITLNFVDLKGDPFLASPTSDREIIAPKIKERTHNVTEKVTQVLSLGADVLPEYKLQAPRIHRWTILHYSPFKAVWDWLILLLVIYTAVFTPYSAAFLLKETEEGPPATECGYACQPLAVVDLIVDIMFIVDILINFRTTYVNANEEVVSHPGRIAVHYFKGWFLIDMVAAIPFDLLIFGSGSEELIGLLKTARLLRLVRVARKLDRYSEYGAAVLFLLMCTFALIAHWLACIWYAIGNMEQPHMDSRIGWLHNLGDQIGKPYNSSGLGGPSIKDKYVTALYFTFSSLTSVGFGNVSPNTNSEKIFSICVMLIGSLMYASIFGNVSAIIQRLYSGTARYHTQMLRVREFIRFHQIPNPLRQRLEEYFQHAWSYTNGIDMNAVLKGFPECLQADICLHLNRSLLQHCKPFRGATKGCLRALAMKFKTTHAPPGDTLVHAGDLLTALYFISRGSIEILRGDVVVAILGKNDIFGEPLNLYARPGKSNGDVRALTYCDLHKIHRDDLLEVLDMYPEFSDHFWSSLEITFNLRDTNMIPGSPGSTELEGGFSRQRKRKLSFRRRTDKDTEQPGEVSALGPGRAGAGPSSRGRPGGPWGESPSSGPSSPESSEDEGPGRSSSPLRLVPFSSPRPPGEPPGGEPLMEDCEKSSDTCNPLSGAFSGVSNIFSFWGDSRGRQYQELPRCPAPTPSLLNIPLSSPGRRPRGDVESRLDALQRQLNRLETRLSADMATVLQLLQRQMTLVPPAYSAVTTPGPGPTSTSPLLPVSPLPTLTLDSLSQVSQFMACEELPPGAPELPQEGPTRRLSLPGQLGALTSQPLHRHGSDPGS
row,Compound,"hERG current change (%, negative = inhibition) at 1uM [%]"
1,Cn1ncc([N+](=O)[O-])c1C(=O)NC1CCCCC1,9.72
2,Cc1ccc(S(=O)(=O)N2CCN(C(=O)Cc3ccc4c(c3)OCCO4)CC2)cc1C,5.37
3,CN(CC(=O)Nc1ccc(OC(F)(F)F)cc1)C(=O)Cc1c(Cl)cccc1Cl,8.07
4,COC(=O)CNC(=O)c1cccc(F)c1,8.31
5,COc1ccc([N+](=O)[O-])cc1NC(=O)c1ccc(C)o1,7.4
6,CCSc1nnc(-c2ccncc2)n1Cc1ccccc1,-7.48
7,O=C(Sc1ccccc1)c1cccc(Cn2cc(C(F)(F)F)ccc2=O)c1,5.52
8,COc1ccc(-n2nc(C(=O)NCC(=O)NCCC3=CCCCC3)c3ccccc3c2=O)cc1OC,14.2
9,O=C(c1cc(-c2ccc3c(c2)OCO3)on1)N1CCN(c2ccccc2)CC1,2.88
10,CCOc1ccccc1N1CCN(CC(O)COC2CCCc3ccccc32)CC1 (centres unmarked),-29.8
11,COC(=O)/C(C#N)=C/c1c(Oc2cccc(C)c2C)nc2ccccn2c1=O,-1.77
12,O=C(NCCc1ccccc1)C1CCN(C(=O)N2CCOc3ccccc32)CC1,4.98
13,CCOC(=O)CSc1nc(CC)nc2ccccc12,4.2
14,COc1ccc(CCNC(=O)C2=CCN(S(=O)(=O)c3ccc(F)cc3)CC2)cc1OC,3.59
15,Cn1nc(C(C)(C)C)cc1NC(=O)Nc1ccc(F)cc1F,12.9
16,O=C(c1ccccc1)N1CCN(c2ncnc3sc4c(c23)CCC4)CC1,-28.9
17,Cc1ccc(OC(=O)CCC(=O)OCCCC(F)(F)C(F)(F)F)cc1,3.12
18,COc1ccc(S(=O)Cc2ccc(C(=O)N3CCN(c4cccc(C)c4C)CC3)o2)cc1 (centres unmarked),7.5
19,Cc1ccc(-c2nc(CS(=O)CC(=O)NCCCN3CCN(Cc4ccccc4)CC3)c(C)o2)cc1 (centres unmarked),-4.76

row,Compound,"hERG current change (%, negative = inhibition) at 1uM [%]"
1,Cc1ccc(CC(=O)NCC2CCCCC2)cc1,12.5
2,Cc1ccc2c(c1)c1nc3ccccc3nc1n2C,12.3
3,Cc1c([C@@H]2C[C@H]3CN(Cc4cccc(Cl)c4)C(=O)[C@]34CCCN24)cnn1C,-18.2
4,Cc1cc(Br)ccc1OCCCCNC(C)(C)C.O=C(O)C(=O)O,-7.77
5,Nc1nsc2ccccc12,14.3
6,O=P(c1ccccc1)(c1ccccc1)N(c1ccccc1)c1ccccc1,11.8
7,CC(C)Cn1c(N)c(C(=O)COC(=O)c2cnc(Cl)c(Cl)c2)c(=O)n(C)c1=O,-5.44
8,Cc1cccc(N2C(=O)C3CCCN3C2=S)c1 (centres unmarked),10.8
9,O=C(CNC(=O)c1ccc(Br)o1)NCC1CCCCC1,5.83
10,COc1ccc(CCn2c(-c3cc([N+](=O)[O-])cc([N+](=O)[O-])c3)nc3nc4ccccc4nc32)cc1OC,1.88
11,CC1CCCN(C(=O)CN2C(=O)c3ccccc3S2(=O)=O)C1 (centres unmarked),13.2
12,O=C(c1c[nH]c2ccc(S(=O)(=O)N3CCOCC3)cc2c1=O)N1CCC2(CC1)OCCO2,9.73
13,NS(=O)(=O)c1ccc(CCNC(=O)c2ccc[nH]c2=S)cc1,11.6
14,O=C(COC(=O)CCSc1ccc(Cl)cc1)NCCc1ccccc1,12.9
15,Cc1ccnc(NC(=O)CCCNC(=O)c2ccc(Cl)cc2)c1,16.3
16,N=c1c(C(=O)NCCc2ccccc2)cc2c(=O)n3ccccc3nc2n1Cc1ccco1,-67.5
17,COc1ccc(OC)c(NC(=O)Cc2cccs2)c1,14.6
18,Cc1ccc(S(=O)(=O)Nc2nc(C)c(C(=O)NNS(=O)(=O)c3cc(C)ccc3C)s2)cc1,13.1
19,Cn1c(=O)oc2cc(S(=O)(=O)Nc3ccccc3F)ccc21,14

row,Compound,"hERG current change (%, negative = inhibition) at 1uM [%]"
1,C=CCOc1ccccc1CNc1cccc(F)c1,19
2,COc1cc(/C=N/NC(=O)c2ccccc2O)ccc1OC(=O)CC1SC(=O)NC1=O (centres unmarked),5.67
3,O=C(O)c1cccc(NC2=C(N3CCOCC3)C(=O)c3ccccc3C2=O)c1,10.3
4,COc1cc(OC)cc(C(=O)NC(C)c2cnn(-c3ccccc3C)c2C)c1 (centres unmarked),7.56
5,Cl.O=C(CCS(=O)(=O)c1ccccc1)N(CCCN1CCOCC1)c1nc2ccccc2s1,-3.95
6,CCOc1ccc(OCC(=O)Nc2ccc(OC)cc2)cc1,19.6
7,CS(=O)(=O)c1ccc(Cl)c(NC(=O)CSc2nc3ccccc3c(=O)n2CCCN2CCOCC2)c1,-1.98
8,CC(=O)Nc1ccc(N2CCN(c3ccc(F)cc3)CC2)cc1,12.2
9,CCOC(=O)c1ccccc1NC(=O)CSc1nc2ccccc2o1,2.67
10,S=C(NCC1CCCO1)NC1CC1 (centres unmarked),2.37
11,Cn1nc(C(=O)NCC2CCCO2)c2ccccc2c1=O (centres unmarked),0.281
12,C=C1CCN(C(C)C(=O)OC)S(=O)(=O)c2ccccc21 (centres unmarked),5.5
13,COc1ccccc1NC(=O)CCN1C(=O)/C(=C/c2cc(OC)c(OC)c(OC)c2)SC1=S,11.8
14,COc1cccc(C(=O)Nc2sc3c(c2C#N)CCN(C(C)=O)C3)c1,8.32
15,Cc1ccccc1C(C(=O)NCc1ccco1)N(CC1CCCO1)C(=O)Cn1nnc2ccccc21 (centres unmarked),1.9
16,c1ccc(-n2nnnc2SCCCSc2nc3ccccc3s2)cc1,14.6
17,Cc1cccn2c(CNCCSc3nccn3C)c(C(=O)N3CCCCC3)nc12,8.67
18,COc1ccc(-c2csc(NC(=O)Cn3nc(C)cc3C)n2)cc1,16.5

# Source: paper PMC4336329 (PLoS ONE, 2015)
